{"source": "PubChem BioAssay AID1476", "about": "(National Center for Advancing Translational Sciences (NCATS), 2009)", "note": "The whole screen tested about 200,000 compounds, of which about 4,500 (2.2%) were called active. The shares of active, inactive and inconclusive entries below differ from those in the screen. Calls follow the shape of the dose curve; as a rule, active = well fitted inhibition curve with a large enough effect; inconclusive = small, poorly fitted or top-dose-only effect, or effect the other way; inactive = flat fitted curve, though single readings scatter. Potencies of inconclusive entries are doubtful fits and often do not repeat. Potency is read from the fitted curve at half-maximal effect; tags tell the direction and shape of the fitted curve.", "data": [{"molecular_target": "Cruzipain (Trypanosoma cruzi) (UniProt P25779)", "sequence (P25779 whole entry, looked up)": "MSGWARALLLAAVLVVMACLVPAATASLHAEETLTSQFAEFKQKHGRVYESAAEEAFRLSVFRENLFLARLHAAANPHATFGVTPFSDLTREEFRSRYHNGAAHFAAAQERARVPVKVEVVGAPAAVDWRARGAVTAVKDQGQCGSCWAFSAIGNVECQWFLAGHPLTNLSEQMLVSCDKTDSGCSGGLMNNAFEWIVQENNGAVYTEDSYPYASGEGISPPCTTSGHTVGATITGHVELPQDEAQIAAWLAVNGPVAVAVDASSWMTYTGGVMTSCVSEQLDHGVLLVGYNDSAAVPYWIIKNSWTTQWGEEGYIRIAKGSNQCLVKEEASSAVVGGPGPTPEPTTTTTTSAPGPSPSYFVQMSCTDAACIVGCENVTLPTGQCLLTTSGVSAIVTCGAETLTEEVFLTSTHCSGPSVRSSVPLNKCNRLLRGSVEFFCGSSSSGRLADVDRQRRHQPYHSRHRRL", "experiment": "qHTS Assay for Promiscuous and Specific Inhibitors of Cruzain (without detergent); also: nearly all actives have a fitted effect of over 40% in size;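 as to max response, negative = inhibition: plate controls were enzyme without inhibitor for no effect and buffer without enzyme for full effect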", "conditions": "purified cruzain, Z-FR-AMC fluorescence, no detergent", "in_short": "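Detergent-free condition (0.00005% Triton X-100) in acetate buffer pH 5.5 with DTT. 1.5 nM enzyme and compound were pre-mixed 15 min, then 2 uM Z-FR-AMC substrate added; reaction progress from fluorescence change between first and third reads (60 s).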", "values": [{"smiles": "CCc1ccccc1NS(=O)(=O)c1ccc(NC(=O)N2CCCC2)cc1", "max response, negative = inhibition": "inactive: 0.427%"}, {"smiles": "CCOC(=O)c1cc(-c2ccc(F)cc2)n(CCC(=O)NCCc2ccc(C)cc2)c1C", "Potency": "inconclusive: 10 µM [activator, partial curve, poor fit]"}, {"smiles": "COC(=O)c1cc(=O)n(Cc2ccc3c(c2)OCO3)c(=Nc2ccc(F)cc2)s1", "Potency": "inconclusive: 20 µM [inhibitor, partial curve]"}, {"smiles": "COc1ccc(CCNC(=O)c2cnc3sc(N4CCCC4)nn3c2=O)cc1OC", "max response, negative = inhibition": "inactive: -0.706%"}, {"smiles": "CN(C(=O)c1cc2c(s1)-c1ccc(Cl)cc1SC2)c1cccc(C(F)(F)F)c1", "max response, negative = inhibition": "inactive: 0.16%"}, {"smiles": "COc1ccc(-c2noc(CNS(=O)(=O)c3ccc(Br)cc3)n2)cc1OC", "max response, negative = inhibition": "inactive: -4.84%"}, {"smiles": "COc1ccc(-c2nc3cnc(Nc4cccc(OC)c4)nc3n(Cc3cccs3)c2=O)cc1", "Potency": "inconclusive: 3.98 µM [inhibitor, partial curve]"}, {"smiles": "Cc1scc(C(=O)Nc2ccon2)c1-c1ccccc1", "max response, negative = inhibition": "inactive: -5.18%"}, {"smiles": "CCN(CC)CCSc1nnc2c3cc(F)ccc3n(C)c2n1", "Potency": "active: 12.6 µM"}, {"smiles": "Cc1ccc(C(=O)OCc2cn3ccccc3n2)cc1", "Potency": "inconclusive: 20 µM [inhibitor, partial curve]"}, {"smiles": "COc1ccc(C(=O)CSc2nnc(-c3cc(C)cc(C)c3)o2)cc1", "Potency": "inconclusive: 15.8 µM [activator, single point]"}, {"smiles": "CCOC(=O)N1CCC(NC(=O)CCC(=O)N2CC(C)Oc3ccc(Cl)cc32)CC1", "note": "(centres undefined)", "Potency": "inconclusive: 31.6 µM [activator, single point]"}, {"smiles": "COC(=O)Cn1cnc2sc(C)c(S(=O)(=O)N3CCN(c4ccccc4OC)CC3)c2c1=O", "Potency": "inconclusive: 39.8 µM [activator, single point]"}, {"smiles": "COc1ccc(CCNC2=C(Cl)C(=O)N(CCc3ccc(OC)c(OC)c3)C2=O)cc1OC", "Potency": "inconclusive: 39.8 µM [activator, single point]"}, {"smiles": "COc1ccc(/C=C/C(=O)c2ccc3ccccc3c2O)cc1CN1CCOCC1", "Potency": "inconclusive: 25.1 µM [activator, single point]"}, {"smiles": "CC1CCC2(CC1)NC(=O)N(CC(=O)Nc1nc(-c3ccc(F)cc3)cs1)C2=O", "note": "(centres undefined)", "Potency": "active: 25.1 µM"}, {"smiles": "COc1ccccc1N(CC(=O)NCCSCc1cccc(Cl)c1)S(C)(=O)=O", "Potency": "inconclusive: 31.6 µM [activator, single point]"}, {"smiles": "CC(OC(=O)c1ccccc1NS(=O)(=O)c1cccc(C(F)(F)F)c1)C(=O)N(C)Cc1ccccc1", "note": "(centres undefined)", "max response, negative = inhibition": "inactive: 15.1%"}, {"smiles": "Cn1c(=O)c2c(c3ccccc31)OC(=O)CC2c1cccc(F)c1", "note": "(centres undefined)", "max response, negative = inhibition": "inactive: 3%"}]}]}
